These results are taken from the antibiotic and cytotoxicity screens of Wong et al. (2023).

This is one part of the list.

This test deals with S. aureus RN4220. Kind of test: growth inhibition call (relative growth <= 0.2). The conditions noted are these: 50 µM.
`C[C@H]1CCCCO[C@H](CN(C)C(=O)Nc2ccc(C(F)(F)F)cc2)[C@@H](C)CN([C@@H](C)CO)C(=O)c2cc(NC(=O)Nc3cccc4ccccc34)ccc2O1`: the growth inhibition call was “inactive”. Regarding `COc1ccc(S(=O)(=O)N(C)C[C@@H]2Oc3ncc(C#CC4(O)CCCC4)cc3C(=O)N([C@H](C)CO)C[C@H]2C)cc1`, the growth inhibition call was “inactive”. The value for `C[C@H](CO)N1C[C@H](C)[C@@H](CN(C)C(=O)c2ccc3c(c2)OCO3)Oc2ncc(C#Cc3ccccc3F)cc2C1=O` was “inactive”; that for `C[C@H]1CN([C@@H](C)CO)C(=O)c2cc(NC(=O)CCCN(C)C)ccc2O[C@H]1CN(C)Cc1ccc(C(=O)O)cc1` was “inactive”.
